We go through 63 sequences from the supplement of paper PMC10681739.

± gives the standard deviation of the averaged measurements. Over roughly 4,000 sequences, “arbitrary fluorescence units” has its median near 830; the highest 2% begin near 6,500. Most of the strongest results are missing from this list.
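Further: Full-length recombinant human RUNX1 bound to double-stranded DNA microarray spots, detected with an Alexa488-labelled secondary antibody after the anti-RUNX1 primary, read as scanned spot fluorescence.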

UniProt Q01196, sequence (Q01196 whole entry): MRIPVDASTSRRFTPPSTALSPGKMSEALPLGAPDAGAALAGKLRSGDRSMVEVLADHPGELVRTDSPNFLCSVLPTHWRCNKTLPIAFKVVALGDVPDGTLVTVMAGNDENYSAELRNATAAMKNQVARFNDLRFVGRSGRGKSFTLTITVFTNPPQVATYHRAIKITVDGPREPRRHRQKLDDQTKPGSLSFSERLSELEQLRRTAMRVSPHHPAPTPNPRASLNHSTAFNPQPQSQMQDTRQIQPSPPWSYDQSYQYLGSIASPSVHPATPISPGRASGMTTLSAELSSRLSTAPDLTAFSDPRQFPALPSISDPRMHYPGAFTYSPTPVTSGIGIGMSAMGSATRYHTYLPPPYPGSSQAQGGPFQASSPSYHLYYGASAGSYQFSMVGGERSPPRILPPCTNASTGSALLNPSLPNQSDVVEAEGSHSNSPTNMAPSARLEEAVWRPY

The target in the assay is RUNX1 (UniProt Q01196). Nature of the assay: RUNX1 binding intensity (PBM fluorescence), RUNX1 alone (arbitrary fluorescence units); higher = stronger binding. To be noted: RUNX1 concentration 2 nM; ETS1 concentration 0 nM. Here is the method:
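gcPBM on 36-bp genomic-derived probes (partner site mutated) containing one RUNX1 site and no ETS1 site. Recombinant human RUNX1 (2 nM) was incubated alone or with ETS1 (25 nM) and detected by anti-RUNX1 antibody fluorescence. Values are medians over 4 replicate spots (not normalised). The probes sit in constant array flanks that are not printed.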
For the sequence CCCGGCTGAACTCGCTGTCCCGGCAGGCACCGCGGC, the RUNX1 binding intensity was determined as 1040.

CGTAGACACCTTCAGCTGCACCCAGCCGCAGCTGGT: the RUNX1 binding intensity worked out at 803.

On to GACAAACATACCGCTAGGACAGCATGTGAAATCCAC, for which the RUNX1 binding intensity came out at 786.

Sequence TCACTAATTGTGTGGGGCCCCAGGGTGTGTTTTGGT had an RUNX1 binding intensity of 756.

Regarding CTGCTGCGGCAGAACGCGACGTGCTAACCTGAATCC, the RUNX1 binding intensity came to 771.

Turning to TAATGCGGTTGCTCACTTAACAGACTACAGCATGGT, the RUNX1 binding intensity was 1260.

Regarding GTGCAACTGCGGTAAAAATAGGCAGTGGGGGAGGAG, the RUNX1 binding intensity came out at 1050.

AGGTCTTTTGCATCATGCAGAACACCACATGTGTCC yielded an RUNX1 binding intensity of 810.

TACAGGCACTTGCTGCGCGGCTGCTGTGGTTGCGAG showed an RUNX1 binding intensity of 653.

TGGTACCACAAAGCGGCGGCAGGAGGGACGTTTCTG returned an RUNX1 binding intensity of 864.

In turn, CGAGCAGGCAGTGGCAAGATTTGATAGGCGGTCAGG showed an RUNX1 binding intensity of 712.

Consider ACAGAGAGGGACGTCGCCAGTGTGGTCAGCGGGCGT, for which the RUNX1 binding intensity came out at 879.

AAGGCGGTACTGCCTCCAGCATTTGCCGCAAGTTAT gave an RUNX1 binding intensity of 646.

With CAGATTTACGGCTTCTGAGGAGCTGCCCTACCACAG, the RUNX1 binding intensity was 734.

Consider AAGCCGGTGGTTTCTGGAGGTTCAGCACATGCTGGA, for which the RUNX1 binding intensity is 789.

AATGAGCCCCACAACCCTTTTCCTTACGGCCTGCAC returned an RUNX1 binding intensity of 1150.

For AACAACAGCATGCTCTCTAGTCTAACAGTGGTAACA, the RUNX1 binding intensity is 904.

Consider CGTGGCGGTATCCCGGAGCCTGCCGTCCAGCCCTAC, for which the RUNX1 binding intensity was 790.

With GCCAGGGCTGCGGCGGGAGAGGAGGCCGGGCGGCCG, the RUNX1 binding intensity worked out at 760.

For the sequence GGAGGAAGAGAGGAATCGGGGGCGGCCGCAGCTTCT, the RUNX1 binding intensity was determined as 741.

As for GGCAGCGGTTTTCGCTGTCGGCACTGAAGGGAAGCA, the RUNX1 binding intensity amounted to 813.

Consider TCAAAAACCTTACCACTTCAGCCGGCAACTACAGGA, for which the RUNX1 binding intensity was found to be 893.

With TTGCATGCTGGGATTTGTAGTCCTGGCCGCAGTGCT, the RUNX1 binding intensity came to 645.

As to GAATAACCACAACAACCGATGCACCTCCGTGTTTAA, the RUNX1 binding intensity turned out to be 3610.

Sequence GCGTCGGCCACAAGGCGTTTTACGTTCAGCCCCCTG displayed an RUNX1 binding intensity of 789.

As for ATGTTAACACCCTGCCATGAAAACCGCAAGAAGGGC, the RUNX1 binding intensity amounted to 11200.

On to GGGCCCCGCAGCCCGACCGCCTGACCGAAAGTGCAG, for which the RUNX1 binding intensity is 815.

In turn, CATGTGGTCAACTCGATTTGTCACAGCAAGTACCCA gave an RUNX1 binding intensity of 830.

On to AGACCCGAAAGAACTTGTCCCAGTGTTGACCACACC, for which the RUNX1 binding intensity was 829.

GGCTGATCAGATCCCTGCTGCGGGCTTAAATAGAGT came in with an RUNX1 binding intensity of 739.

For AGCTGCCAACCGCAGCGCTACTCCCGGCCGCCTCCG, the RUNX1 binding intensity was found to be 3850.

Consider TGCCTGTGGTCTTTTGAGAGGTGGGGAGGTGGGCGA, for which the RUNX1 binding intensity amounted to 947.

With GCTTACACTGCCTCCCTGAACCCCTGCGGTTTCACA, the RUNX1 binding intensity came to 3440.

The sequence ACACCGCTCATGAAGACAAAGCCACACCTCACACCG showed an RUNX1 binding intensity of 972.

In the case of GCATGAAGACAAAGGGCATGGTTTGTGTGGTGCCCC, the RUNX1 binding intensity was found to be 707.

For the sequence CAACAACCGAAAGTGGGGCGGGCCGCAGTACCCGCC, the RUNX1 binding intensity was determined as 720.

For AGCTGCATTTACGGGCAGGCAATGAAACCACAGAGT, the RUNX1 binding intensity worked out at 934.

AGGTGTGGGTGACTCAGAGCGGGCTGATGAGAACAG came in with an RUNX1 binding intensity of 780.

In the case of ACCAGAGAAGGAACTACACAGTAAACCCACTGCCTC, the RUNX1 binding intensity is 914.

Consider CCCGGAGGACGTTCGGCCTCTGTGAGCCGCAACCTT, for which the RUNX1 binding intensity was determined as 758.

CATCTCTCTGTGGCTTCCCTGTGACTTTCGCAGGTG registered an RUNX1 binding intensity of 1130.

In turn, TCCCGCCTACCGCGAAAAACGCGCAAATACGGTGGC yielded an RUNX1 binding intensity of 914.

Regarding GGTCGCTGTGGTGACGGGGGAGGCAATTCTGTCCGT, the RUNX1 binding intensity stood at 788.

Consider GAGGTCCTGGTGGTTTCATTTCAGGGTGCAGCTTCT, for which the RUNX1 binding intensity was 796.

The sequence TTGAGCCTAACCACTGCACGAGCACAGGGTGTGGGA displayed an RUNX1 binding intensity of 748.

For CCCAGAGATGCGGTGCATGTGGCAGCATGGCCCAGC, the RUNX1 binding intensity was found to be 1380.

The sequence GGCAGGAGCAGCCGCAAACTAGGCCCGAAAACTGTC had an RUNX1 binding intensity of 921.

GCGAGAGGGATGAATTGACTCACCAACCACAACAAA returned an RUNX1 binding intensity of 929.

TGGCGCTTTCTGTCGCTACCGCTGCGGCCCAGGGCC displayed an RUNX1 binding intensity of 782.

Take GCAGTCCTGAGGTGGGTATTTATTTGCTGCTGTTCT: the RUNX1 binding intensity is 830.

CTTCAAAGTCAGGCAACCGTTAAACCACACTGCATC came in with an RUNX1 binding intensity of 1100 ± 59.

For GATAAGCGGTTTCTAATGAGCTCACTGGTTGCCGAT, the RUNX1 binding intensity was found to be 777.

GTTTACAAAACCAAGCCCTTGACGTCTTCATGGACC registered an RUNX1 binding intensity of 824.

Turning to GTTTTGTGGCCTAAAGAAACATATGGTCAGGCTGAT, the RUNX1 binding intensity came out at 815.

As to CCCCGTACGGGGAGGAGCGAGGCCCGCGGTTGTCCC, the RUNX1 binding intensity is 726.

Turning to CCTCTGTGGTTTTTAAGAGTAACACACAGAAAGGAC, the RUNX1 binding intensity turned out to be 3270.

The sequence CTCCCCTGAACACGCGAGTCTCCTGTCGCGGTTCCA registered an RUNX1 binding intensity of 961.

Regarding TCCTGTGGCTTAGCTGGGAGAACACGATGACAGCAA, the RUNX1 binding intensity amounted to 903.

CCAACGCTCCCCGCAGCGCGTTACGGAGCCGGTCCT yielded an RUNX1 binding intensity of 878 ± 15.

Turning to GGGTTCTCCGCGCGCCAGCTGAGGTGGTTGCTGGGA, the RUNX1 binding intensity was 730.

Sequence TGTAAGTCAATTCCTGTCGTGGTCAGGTCTCCTCTC registered an RUNX1 binding intensity of 827.

Turning to CTGTCCAGCCCACAGAGGCCCCTGAAAGCCAGTGCC, the RUNX1 binding intensity amounted to 865.

AGCACCCGGGAGTCGGAGCTGCGCACGCACCGCGGG gave an RUNX1 binding intensity of 709.
